# Reference: ChEMBL document CHEMBL4888484, “Replenishing the malaria drug discovery pipeline: Screening and hit evaluation of the MMV Hit Generation Library 1 (HGL1) against asexual blood stage Plasmodium falciparum ,using a nano luciferase reporter read-out” (2022)
# Out of some 150,000 compounds screened, about 540 (0.36%) showed an effect of 50% or more. This is one part of the list.
# Test system: Plasmodium falciparum
# Assay: Primary screen in NF54 nanoGlo assay, in single point, at 2uM, 72h; a lower Z score goes with more inhibition
# Assay type: functional, Erythrocyte
# Conditions: timepoint 72 hour
Compound,% Inhibition,Z score
CN(Cc1ccccc1)C(=O)c1nn(-c2ccc(Cl)cc2)c(=O)n(Cc2cccc(F)c2)c1=O,-8%,1.02
Cc1[nH]c2c(-c3cccc4ccccc34)cnn2c(=O)c1Cl,-17%,2.17
Cn1cc(-c2csc(Nc3ccc(C#N)cc3)n2)cn1,3%,-0.44
CCS(=O)(=O)C[C@H](C)N(C)C(=O)CCc1ccccc1,-4%,0.8
O=C(CCNc1ccc(-c2ccccc2)cc1)c1ccc(Br)cc1,-12%,1.48
CCOC(=O)CN(C)c1ncc(CN[C@@H](C)c2ncn[nH]2)cn1,-4%,0.75
Cn1ncc2cnn(CC(=O)Nc3cccc(S(=O)(=O)N4CCOCC4)c3)c2c1=O,-7%,1.14
CC(C)C(=O)N[C@H](C#N)c1cccc(Br)c1,10%,-1.64
Cc1nnc(-c2ccc(S(=O)(=O)N3CCCc4ccccc43)s2)o1,-8%,1.55
COC[C@](C)(CCO)NCc1c(C)cccc1C,-4%,0.6
Cn1cc(CN2C[C@@H]3[C@@](C(F)(F)F)(CCCS3(=O)=O)C2)cn1,-15%,1.51
c1ccc(-c2noc(-c3ccc(N4CCN(C5CCCCC5)CC4)nn3)n2)cc1,7%,-0.87
Cn1cc(C(=O)N2CCC[C@H]2c2ccsc2)cn1,-6%,0.57
CC1(C)O[C@@H]2C[C@@](OCc3ccccc3C#N)(C(=O)NC3CC3)CC(OCc3ccc(F)c(F)c3)[C@@H]2O1 (stereo partly specified),-5%,0.54
O=C(C[C@@H]1NC(=O)N(Cc2ccccc2Cl)C1=O)Nc1ccccn1,2%,-0.29
O=C(c1ccsc1)N1CCc2sccc2C1,5%,-0.97
N#CC1(N(C(=O)c2cc(Cl)ccc2F)C2CC2)CCC1,-12%,1.17
O=C(c1ccccc1)N(CC1CCN(C2Cc3ccccc3C2)CC1)C[C@H]1CCCO1,1%,-0.09
CN1C(=O)C[C@@H](C(=O)NCc2ccc3[nH]cnc3c2)c2ccccc21,3%,-0.45
Cc1cccc(CC(CNC(=O)C2CCOC2)C(=O)O)c1 (stereo unspecified),-16%,1.91
COc1ccc(-c2cc(O)n(-c3nc4ccccc4s3)n2)cc1OC,1%,-0.08

Compound,% Inhibition,Z score
CC[C@H](C)CC(=O)OCCOc1nn(C)c(N)c1C(=O)OC,10%,-1.57
Cc1cccc(CN2CCCn3nc(C(=O)NC4CCCC4)cc3C2=O)c1,-7%,1.39
O=C1N[C@H]2C[C@@H](C(=O)NC[C@H]3O[C@H](CCOc4cc(C5CCCC5)ccc41)CC[C@@H]3O)N(C1Cc3ccccc3C1)C2,-7%,1.06
Cc1nc(N2CCN(C)CC2)cc(N2CCN(C(=O)C3CCCC3)CC2)n1,-24%,2.11
Cc1nn(S(=O)(=O)N2CCC(C)CC2)c(C)c1Br,-34%,4
Cc1ccc2[nH]c3c(c2c1)CN(C)CCC3,4%,-0.52
CN1C[C@H](CNC(=O)Cc2ccsc2)OCC1=O,-8%,1.51
CCOc1c(Br)cc(Br)cc1CNCC(=O)N1CCCC1,5%,-0.94
Cc1ccc(CN(Cc2ccncc2)C(=O)[C@@H]2CCCCCN2C)s1,-7%,1.32
CC(=O)N1CCC(CC(=O)NCCCc2nc(C)no2)(N2Cc3ccccc3C2=O)CC1,-16%,2.28
Cc1ncsc1C(=O)N1CCC(CNC(=O)c2cnn(C)c2)CC1,-12%,1.76
CCN1CCN(c2ncc(N3CCC(C(=O)NCC4CC4)CC3)cn2)CC1,3%,-0.44
Cc1cnn(CC(C)NC(=O)N2CCCC2CCO)c1 (stereo unspecified),2%,-0.35
COc1cccc(C2c3[nH]c4ccccc4c3C[C@H]3C(=O)N(C4CCN(Cc5ccccc5)CC4)CC(=O)N23)c1 (stereo partly specified),15%,-1.95
Cc1ccc(Cl)cc1C(=O)N[C@H]1C[C@H]2C(=O)NCC(=O)N2C1,-13%,1.92
CC(C)c1nccc(CN(Cc2cocn2)Cc2cocn2)n1,-11%,2.03
Cc1nc(N2CCN(C/C=C/c3ccccc3)CC2)c2c(C)noc2n1,-12%,2.21
Nc1nc2cc(C(F)(F)C(F)(F)F)ccc2[nH]1,2%,-0.28
C[C@@H]1C[C@@H](NC(=O)C2(C#N)CCC2)c2ccccc2O1,-9%,1.49
O=S(=O)(NCc1ccc2[nH]c3c(c2c1)CCCCCC3)N1CCOCC1,-4%,0.51
CC(=O)N1CCC(N2CCOC[C@H]2c2nc(-c3ccc(F)cc3)c[nH]2)CC1,5%,-0.79

Compound,% Inhibition,Z score
Cc1c(C(=O)N2CCC(c3nc(N(C)C)no3)CC2)ccn1C,-9%,1.05
Cc1noc(C)c1S(=O)(=O)NC[C@H](O)c1ccoc1,-5%,0.77
CN1CCC(O)(C(=O)N[C@H]2CCCC[C@@H]2c2ccccc2)CC1,4%,-0.62
O=C([C@@H]1CC(c2ccc(Cl)cc2Cl)=NO1)N1CCC1,-13%,2.02
CC1CCCN(c2nccc(N3Cc4ccccc4C3)n2)C1CN (stereo unspecified),-2%,0.3
Cc1noc2cc(NS(=O)(=O)N3CCCC3)ccc12,-10%,1.33
NC(=O)C[C@H]1CCN(C(=O)C2(c3cccc(Br)c3)CCCCC2)C1,6%,-0.66
CCCCN(CC(F)(F)F)C(=O)Nc1cn[nH]c1,0%,0.05
O=C(NCC1(Cc2ccccc2)CCC1)C1CC2CCC1O2 (stereo unspecified),-9%,1.38
O=C1NCCCC[C@@H]1N(Cc1cccc(OCCc2ccsc2)c1)C(=O)C1CCCCC1,-19%,2.55
Cc1nc(C(=O)NC2(c3ccccc3)CCOCC2)cs1,-1%,0.14
CCn1cc(CN2C[C@H]3C[C@H](C2)[C@@H]2CCCC(=O)N2C3)cc1C#N,6%,-1.3
O=C(CN(C[C@H]1CCCO1)C(=O)Nc1ccccc1C(F)(F)F)N(Cc1ccc(F)cc1)Cc1cccs1,-5%,0.6
Cc1c(C(=O)N[C@@H](CO)C2CCC2)c2ccccc2n(C)c1=O,-17%,2.03
O=C(CN(CC1(O)CCCC1)CC1(O)CCCC1)NC1CCCC1,1%,-0.17
Cc1nn(C)cc1C(=O)N1CCC[C@H](N(C)C(=O)c2cnc(C)n2C)C1,2%,-0.38
COc1ccc(-c2nc(CN3CCN[C@@H](C)C3)c(C)o2)c2ccccc12,-2%,0.29
Cc1ccc(C(=O)N2CCCCC2)cc1NC(=O)c1nsc2ccccc12,-10%,1.71
CC1Cc2nn(-c3ccccc3)c(-c3ccc(N(C)C)cc3)c2C(=O)C1C (stereo unspecified),-20%,2.64
O=C1C[C@H](C(=O)N(Cc2cnn(-c3ccccc3)c2)C2CC2)CN1Cc1ccccn1,-2%,0.4
O=C(CN1CCC(C(F)(F)F)CC1)N1CCC[C@H](CN2CCOCC2)C1,-30%,3.54

Compound,% Inhibition,Z score
CCn1cc(OCc2noc(-c3cccs3)n2)cn1,32%,-3.56
CCc1ccc(S(=O)(=O)N2CCC3(CC2)C[C@@H]3NC(=O)C(C)C)cc1,2%,-0.29
Cn1nccc1CS(=O)(=O)Cc1cccc2ccccc12,4%,-0.59
Cc1cc(Cl)c(C(=O)N(C)CCN2CCOC2=O)cc1C,5%,-0.41
O=C(NC1CCCCC1)N[C@H]1C[C@@H]1c1ccccc1,8%,-1.21
COc1cccc(C(=O)N2CCN(c3cc([C@H]4C[C@@H](O)C4)ncn3)CC2)c1,-6%,0.85
CCCN1C[C@@H](c2noc(C3(c4cc(F)cc(F)c4)CCCC3)n2)CC1=O,17%,-2.15
COc1ccc(-c2cnc3ncnn3c2N2CCN(S(=O)(=O)c3ccc(F)cc3F)CC2)cc1,-3%,0.35
COCC1CCCN(C(=O)C2CCCN(C(=O)NC3CCCC3)C2)CC1 (stereo unspecified),-8%,1.08
C[C@](O)(CNC(=O)NC1CCCCC1)c1cccs1,-3%,0.52
C[C@@H](c1cccc(C(F)(F)F)c1)N(CC(=O)N1CCN(S(C)(=O)=O)CC1)C1CC1,4%,-0.39
C[C@H]1Cc2ccccc2N1C(=O)CC1(N)CCC1,-1%,0.18
CN(CCc1noc(COc2cccc(Cl)c2)n1)C(=O)c1ccccc1C(F)(F)F,-17%,1.74
CCCC(=O)N1CCN(c2c(C)n(-c3ccccc3)c(=O)n(C)c2=O)CC1,37%,-0.99
CCCN1CCC(CC(=O)N[C@@H](C)c2ccc(C)nc2)CC1,-10%,1.66
CC(C)c1nsc(NCCc2ccc[nH]2)n1,-15%,2.04
Cc1nc([C@H](C)NC(=O)N2CCCCCC2)cs1,2%,-0.33
CS(=O)(=O)N1CCC[C@H]1C(=O)N1CCc2[nH]c3c(Cl)cccc3c2C1,-16%,2.67
C[C@@H]1CN(C(=O)CCN2CCCC2=O)C[C@]1(C)O,-10%,1.68
COc1cc(C(=O)NCCc2nncn2C(C)C)cc(OC)c1OC,-4%,0.41
